Results on 42 molecules are retold here after ChEMBL document CHEMBL4888484, “Replenishing the malaria drug discovery pipeline: Screening and hit evaluation of the MMV Hit Generation Library 1 (HGL1) against asexual blood stage Plasmodium falciparum ,using a nano luciferase reporter read-out” (2022).

The term % Inhibition denotes the drop in the measured response relative to a control, in per cent.

The structures appear in SMILES notation. About 540 (0.36%) of roughly 150,000 compounds showed an effect of 50% or more. The list shows a part of the results.

The test system of the assay is Plasmodium falciparum. Nature of the assay: Primary screen in NF54 nanoGlo assay, in single point, at 2uM, 72h; a lower Z score goes with more inhibition. It counts as functional, Erythrocyte. Particulars: timepoint 72 hour.
Turning to `C[C@@H](CN1CCCCCC1)NCCc1cnn(C)c1`, the “% Inhibition” value was -1% and the Z score is reported as 0.16.
Turning to `CCCc1nnc(N2CCCO[C@@H](CN3CCOCC3)C2)o1`, the “% Inhibition” value is reported as 4% and the Z score is listed as -0.62.
With `CC(=O)Nc1ccc(S(=O)(=O)NCc2ccc(C(=O)NC3CCC(C)CC3)cc2)cc1` (centres undefined), the “% Inhibition” value came to 39% and the Z score is -5.3.
With `O=C(Nc1cccc(Cl)c1)Nc1cccc(-c2cnc3n2CCC3)c1`, the “% Inhibition” value was determined as 38% and the Z score is -6.91.
Take `Cc1ccc(-c2nc3cc(C(=O)N4CCC([C@H](C)C(=O)NC5CCCC5)CC4)ccc3o2)cc1`: the “% Inhibition” value is -8% and the Z score worked out at 1.17.
For the molecule `CC(=O)N[C@H]1C[C@@H](c2ccccc2OCCO)O[C@@H](C2CCCCC2)C1`, the “% Inhibition” value is recorded as 4% and the Z score is recorded as -0.42.
As for `COCC(=O)N(C)[C@@H](C(N)=O)c1cccc(Br)c1`, the “% Inhibition” value was -8% and the Z score is reported as 1.22.
For `Oc1cccc(O)c1CNc1ncnc2c1CCCC2`, the “% Inhibition” value is listed as 1% and the Z score is on record as -0.13.
For `CCn1nc(C)cc1C(=O)N[C@H]1CC2(CCCCC2)Oc2ccccc21`, the “% Inhibition” value is on record as -13% and the Z score was found to be 1.49.
Consider `Cc1nnnn1CCc1cc(Cl)c2c(c1)OCCCO2`, for which the “% Inhibition” value was -18% and the Z score was 2.32.
With `CCOC(C)c1noc(CN2CC(c3ccccc3Cl)OCC2(C)C)n1` (centres undefined), the “% Inhibition” value is recorded as -8% and the Z score is given as 0.89.
For `COc1cccc(N2CCN(C(=O)[C@H]3CCCN(C(=O)c4ccc(Cl)cc4)C3)CC2)c1` the same measures were -5% and 0.7.
The like results for `Cn1nc(NC(=O)N2CC[C@H](O)C2(C)C)cc1C1CC1` were, in that order, 16% and -2.03.
As for `Cc1ccc(Cn2cc(S(=O)(=O)c3cccc(Cl)c3)c(=O)c3cc(F)c(N4CCOCC4)cc32)cc1`, the “% Inhibition” value is recorded as -17% and the Z score is 2.12.
For `CN(C)S(=O)(=O)N1C[C@H]2CC[C@@H](C1)N(C(=O)Cc1cccs1)C2`, the “% Inhibition” value is -5% and the Z score amounted to 0.84.
Turning to `CN1CC[C@H](CNC(=O)c2ccc(Oc3ccccc3)o2)C1`, the “% Inhibition” value is 0% and the Z score was -0.05.
For `Cc1noc(CCN[C@H]2CCCN(C(=O)OC(C)(C)C)C2)n1`, the “% Inhibition” value is given as -3% and the Z score was 0.27.
The like results for `Cc1cc(N2CCN(c3cc(Cl)ccc3C)CC2)n2nc(-c3ccccc3)cc2n1` were, in that order, 0% and -0.08.
Consider `Cc1[nH]nc(CCc2nc(-c3ccco3)nn2[C@H]2CCS(=O)(=O)C2)c1C`, for which the “% Inhibition” value was -6% and the Z score is listed as 0.76.
In the case of `CC(C)c1nsc(CN2CCN(Cc3cn[nH]c3)CC2)n1`, the “% Inhibition” value is listed as 0% and the Z score turned out to be 0.01.
The like results for `CN1CCN(C[C@]2(O)CCCN(Cc3ccc(F)cc3)C2=O)CC1` were, in that order, -11% and 1.46.
For `O=C1C[C@H](c2noc(C3(n4cnnn4)CC3)n2)CN1c1ccccc1` the same measures were 7% and -1.03.
In the case of `Cc1cccc(OC2CN(CCC(=O)NC3CC3)C2)c1`, the “% Inhibition” value is recorded as -4% and the Z score is given as 0.6.
With `Cc1nc(N2CCC[C@H]2C2CCCC2)c2cnn(C)c2n1`, the “% Inhibition” value was -3% and the Z score is given as 0.59.
On to `O=C(NCCc1ccccc1)Nc1cnn(-c2ncc(N3CCCCC3)cn2)c1`, for which the “% Inhibition” value was -2% and the Z score was found to be 0.3.
The like results for `CC(NC(C)c1ccnc(O)c1)c1ccc(OC(F)F)cc1` (centres undefined) were, in that order, -5% and 0.6.
`COCC(=O)N1CCC2(CC1)C[C@@H](CCOCC1CC1)CCO2`: the “% Inhibition” value is -1% and the Z score was found to be 0.18.
For `CC(C)(C)c1cccc(OCCNC(=O)N2CC(C(C)(C)O)C2)c1`, the “% Inhibition” value is on record as -6% and the Z score is 0.65.
The like results for `CN1C(=O)[C@@H]2CCCCN2c2ccc(C(=O)N3CCN(C(=O)c4ccco4)CC3)cc21` were, in that order, 1% and -0.14.
For `O=C(c1ccncc1)N1CCC(F)(C(=O)N2CCCC2)CC1`, the “% Inhibition” value was -7% and the Z score was determined as 0.95.
Turning to `CC1CCC2(CC1)CC(=O)N(CC(=O)NCC1CCC1)C2=O` (centres undefined), the “% Inhibition” value is given as -8% and the Z score worked out at 1.1.
For `CCc1nc(-c2ccccc2)nc(N2CCN(C(=O)c3ccc(F)cc3)CC2)c1Cc1cc(C)ccc1C`, the “% Inhibition” value is reported as -11% and the Z score was 1.18.
Take `C=CCC[C@@H](CO)NCc1cccc(F)c1OCC(F)(F)F`: the “% Inhibition” value is on record as -2% and the Z score is 0.26.
Consider `CN(C(=O)c1ccc(Cl)s1)S(C)(=O)=O`, for which the “% Inhibition” value is -6% and the Z score is recorded as 1.35.
Regarding `O=C(N[C@H]1CC[C@@H]2CCC[C@@H]21)c1ccc2cc[nH]c2c1`, the “% Inhibition” value is -11% and the Z score is reported as 2.13.
Take `COc1ccc(CCNC(=O)C2CCC(c3ccc(F)c(C)c3)N(C(C)=O)C2)cc1` (centres undefined): the “% Inhibition” value is 2% and the Z score is given as -0.27.
Consider `CCc1nnc(-c2ccc3ccn(CC(=O)Nc4ccccc4C)c3c2)o1`, for which the “% Inhibition” value is on record as -12% and the Z score amounted to 1.48.
The like results for `CCN(CC)S(=O)(=O)c1ccc(CNC(=O)c2cc(C3CC3)nc3c2cnn3C(C)C)cc1` were, in that order, -6% and 1.03.
As for `Cc1cc(C)cc(NC(=O)c2cn3c4c(cccc4c2=O)C[C@@H]3C)c1`, the “% Inhibition” value was determined as 7% and the Z score is reported as -0.83.
For `Cn1cc(C2CC2C(=O)N2CCCC(C3NC(=O)NC3=O)C2)cn1` (centres undefined) the same measures were -9% and 1.01.
With `c1ccc(-c2noc([C@@H]3COc4ccccc4O3)n2)cc1`, the “% Inhibition” value was -3% and the Z score came out at 0.61.
As to `CC(C)CCN(Cc1nc(-c2ccco2)no1)C1CC1`, the “% Inhibition” value is -6% and the Z score came to 0.74.
